Out of some 310,000 compounds screened, about 14,000 (4.5%) showed an effect of 50% or more. The effect is printed as a negative number. The list shows a part of the results.
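Also: peak tail current of the secondary pulse compared with the same well before compound.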

The target in the test is human ether-à-go-go-related gene (hERG) potassium channel (human, UniProt Q12809). Kind of test: primary screen, population patch clamp on CHO cells stably expressing hERG.
Sequence of human ether-à-go-go-related gene (hERG) potassium channel (Q12809 whole entry, looked up): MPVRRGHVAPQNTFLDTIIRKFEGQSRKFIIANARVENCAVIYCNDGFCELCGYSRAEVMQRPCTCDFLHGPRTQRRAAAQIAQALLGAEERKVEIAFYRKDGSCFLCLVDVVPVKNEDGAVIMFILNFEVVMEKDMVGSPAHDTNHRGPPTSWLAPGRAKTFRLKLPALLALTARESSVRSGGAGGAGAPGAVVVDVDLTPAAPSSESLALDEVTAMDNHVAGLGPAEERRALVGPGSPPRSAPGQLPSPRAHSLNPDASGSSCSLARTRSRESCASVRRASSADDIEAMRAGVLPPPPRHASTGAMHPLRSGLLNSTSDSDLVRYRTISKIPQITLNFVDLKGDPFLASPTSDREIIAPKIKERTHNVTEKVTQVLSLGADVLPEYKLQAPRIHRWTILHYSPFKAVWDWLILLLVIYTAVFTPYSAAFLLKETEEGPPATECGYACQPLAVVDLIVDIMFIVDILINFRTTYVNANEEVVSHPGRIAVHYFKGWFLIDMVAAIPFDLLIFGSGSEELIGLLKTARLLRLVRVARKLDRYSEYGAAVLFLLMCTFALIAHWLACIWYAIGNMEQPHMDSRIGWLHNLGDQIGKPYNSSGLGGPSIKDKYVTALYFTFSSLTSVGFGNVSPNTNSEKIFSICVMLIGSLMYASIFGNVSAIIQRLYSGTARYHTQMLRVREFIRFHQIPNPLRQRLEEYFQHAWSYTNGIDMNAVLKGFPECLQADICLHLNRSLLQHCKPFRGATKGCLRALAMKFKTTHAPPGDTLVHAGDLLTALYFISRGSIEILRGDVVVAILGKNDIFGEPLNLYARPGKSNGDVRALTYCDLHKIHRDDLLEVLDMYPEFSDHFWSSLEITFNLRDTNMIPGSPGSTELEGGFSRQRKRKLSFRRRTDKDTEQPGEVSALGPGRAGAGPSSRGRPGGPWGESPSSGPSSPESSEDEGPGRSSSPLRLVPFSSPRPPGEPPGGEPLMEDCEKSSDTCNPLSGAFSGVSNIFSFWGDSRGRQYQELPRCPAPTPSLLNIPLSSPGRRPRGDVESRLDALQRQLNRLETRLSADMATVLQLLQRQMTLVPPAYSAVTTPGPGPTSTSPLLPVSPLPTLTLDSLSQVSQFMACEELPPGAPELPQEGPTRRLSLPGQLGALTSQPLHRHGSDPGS
As for `CCn1c(=O)c(C(=O)NNC(=O)c2ccccc2Cl)c(O)c2ccccc21`, the “hERG current change (%, negative = inhibition) at 10uM” value is given as 7.09%.

Regarding `O=C(NCc1ccco1)c1ccccc1-c1ccc(C(F)(F)F)cc1`, the “hERG current change (%, negative = inhibition) at 10uM” value is on record as -2.99%.

On to `COc1ccc(CNC(=O)CN(C(=O)CCC(=O)Nc2ccccn2)c2ccc(C)cc2)cc1`, for which the “hERG current change (%, negative = inhibition) at 10uM” value was -33.7%.

Take `OCC1CCCCN1C(=S)Nc1ccc(Cl)cc1Cl` (stereo not drawn): the “hERG current change (%, negative = inhibition) at 10uM” value stood at 11.8%.

Take `Cc1cc(=O)oc2cc(OCC(O)Cn3ccnc3)ccc12` (stereo not drawn): the “hERG current change (%, negative = inhibition) at 10uM” value was found to be 9.78%.

As to `CCOc1ccc(S(=O)(=O)NCCC(=O)NC(C)CCc2ccccc2)cc1` (stereo not drawn), the “hERG current change (%, negative = inhibition) at 10uM” value is reported as -8.42%.

Regarding `COc1ccc2nc(SCC(=O)NC3CC3)c(C#N)cc2c1`, the “hERG current change (%, negative = inhibition) at 10uM” value is 12.6%.

In the case of `O=C(CN1CCN(S(=O)(=O)c2ccc(Br)cc2)CC1)Nc1ccccc1C(=O)c1ccccc1`, the “hERG current change (%, negative = inhibition) at 10uM” value turned out to be 1.26%.

Consider `CC1(C)C2CCC1(C)C(NCC(O)COc1ccc(C#N)cc1)C2.O=C(O)C(=O)O` (stereo not drawn), for which the “hERG current change (%, negative = inhibition) at 10uM” value was -45.1%.

Turning to `O=C1Nc2ccccc2C1=Nc1cccc([N+](=O)[O-])c1`, the “hERG current change (%, negative = inhibition) at 10uM” value is recorded as 21.8%.

For `Nc1cc(=O)[nH]c(SCC(=O)Nc2ccc(S(=O)(=O)N3CCOCC3)cc2)n1`, the “hERG current change (%, negative = inhibition) at 10uM” value is -6.65%.

Consider `O=C(CSc1nnc(NC(=O)c2ccco2)s1)Nc1ccccc1F`, for which the “hERG current change (%, negative = inhibition) at 10uM” value was 17.7%.

For the compound `CCC(C)C(NC(=O)C1CCC(C)CC1)C(=O)NCCCN1CCCCC1CC` (stereo not drawn), the “hERG current change (%, negative = inhibition) at 10uM” value is on record as -37.5%.

Take `Cc1cccc(N2CC(C(=O)Nc3nnc(SCC(=O)N4CCOCC4)s3)CC2=O)c1` (stereo not drawn): the “hERG current change (%, negative = inhibition) at 10uM” value was found to be 9.3%.

For the compound `C=CCOc1cccc(C(=O)Nc2ncn[nH]2)c1`, the “hERG current change (%, negative = inhibition) at 10uM” value was determined as 13.9%.

`CCNc1nc(NC(C)C)nc(SCCOC(=O)c2ccccc2)n1`: the “hERG current change (%, negative = inhibition) at 10uM” value is listed as -33.7%.

With `COc1ccc2c(c1OC)C(=O)OC2C1c2c(cc3c(c2OC)OCO3)CCN1C.Cl.O` (stereo not drawn), the “hERG current change (%, negative = inhibition) at 10uM” value is given as -13.7%.

Turning to `Cc1nn(-c2ccccc2)c(N2CCCC2)c1/C=C1\N=C(c2ccc(OC(C)C)cc2)OC1=O`, the “hERG current change (%, negative = inhibition) at 10uM” value is 17.5%.

Turning to `Cn1c(=O)n(C)c2cc(/C=N/NC(=O)c3cc4cc(Br)ccc4o3)ccc21`, the “hERG current change (%, negative = inhibition) at 10uM” value was -3.8%.

For `CCOC(=O)C1(Cc2cccc(F)c2)CCN(C(=O)c2cscn2)CC1`, the “hERG current change (%, negative = inhibition) at 10uM” value is -12.7%.

Regarding `Cc1cc(C)n(-c2nc3ccccc3nc2N2CCN(S(=O)(=O)c3ccc4ccccc4c3)CC2)n1`, the “hERG current change (%, negative = inhibition) at 10uM” value is reported as 1.47%.

On to `COc1cccc(CNC(=O)CN2C(=O)CSc3ccc(S(=O)(=O)N4CCCC4)cc32)c1`, for which the “hERG current change (%, negative = inhibition) at 10uM” value is -42.3%.

Take `COCCNc1nc(=S)[nH]c2cc(OC)c(OC)cc12`: the “hERG current change (%, negative = inhibition) at 10uM” value was 3.17%.

Regarding `COc1cccc(OCCOCC(O)CN2CCN(Cc3ccc(Cl)cc3)CC2)c1.Cl` (stereo not drawn), the “hERG current change (%, negative = inhibition) at 10uM” value is on record as -72.3%.

On to `Cn1c(Cn2cnc3ccccc32)nnc1SCC(=O)CC(=O)Nc1ccccc1`, for which the “hERG current change (%, negative = inhibition) at 10uM” value came out at 0.103%.

For the compound `CCOC(=O)c1cc(NC(=O)N(CC)C2CCCCC2)c(C)nc1C`, the “hERG current change (%, negative = inhibition) at 10uM” value is on record as -12.7%.

On to `O=C1c2ccccc2C(O)N1Cc1ccccc1` (stereo not drawn), for which the “hERG current change (%, negative = inhibition) at 10uM” value is given as 4.9%.

For `CCC(C)c1ccc(NC(=S)NCCn2cc(Cl)cn2)cc1` (stereo not drawn), the “hERG current change (%, negative = inhibition) at 10uM” value is -0.708%.

`C/C(CCc1ccccc1)=N\NC(=O)CC(=O)NCCc1ccccc1`: the “hERG current change (%, negative = inhibition) at 10uM” value is 7.61%.

Consider `O=C(NCc1ccccn1)c1ccccc1OCc1ccc(Cl)cc1Cl`, for which the “hERG current change (%, negative = inhibition) at 10uM” value is listed as -1.04%.

`COc1ccc(/C=N/Nc2nc(C)cc(-c3ccccc3)n2)c(OC)c1`: the “hERG current change (%, negative = inhibition) at 10uM” value is -2.21%.

On to `CCN(CC(=O)Nc1c(F)cccc1F)C(=O)c1ccc(OCc2c(C)noc2C)cc1`, for which the “hERG current change (%, negative = inhibition) at 10uM” value is on record as -4.92%.

In the case of `C/C(=N\N1CCN(c2ccccc2)CC1)c1cccs1`, the “hERG current change (%, negative = inhibition) at 10uM” value was 0.697%.

Take `CC1(C)CC(NC(=O)c2cc(COc3cccc(C(F)(F)F)c3)on2)CCO1` (stereo not drawn): the “hERG current change (%, negative = inhibition) at 10uM” value is -15.6%.

As for `O=C(Nc1c(C(=O)N2CCC(N3CCCCC3)CC2)oc2ccccc12)c1ccc(F)cc1`, the “hERG current change (%, negative = inhibition) at 10uM” value is given as -65.8%.

On to `Cc1ccc(NCc2nnc(SCC(N)=O)n2CC2CCCO2)c(C)c1` (stereo not drawn), for which the “hERG current change (%, negative = inhibition) at 10uM” value is listed as 8.71%.

For the compound `CC(=O)Oc1ccc(C(=O)[C@H]2[C@H]3C(=O)N(c4cccc5ccccc45)C(=O)[C@H]3[C@@H]3C=CC=NN32)cc1`, the “hERG current change (%, negative = inhibition) at 10uM” value is 11.5%.

`Cc1cccc(C)c1NC(=O)COc1ccc2c(C)c(Cc3ccccc3)c(=O)oc2c1C`: the “hERG current change (%, negative = inhibition) at 10uM” value worked out at 5.03%.

In the case of `CCCCNC1=C(Br)C(=O)CC(C)(C)C1`, the “hERG current change (%, negative = inhibition) at 10uM” value is on record as -2.82%.

With `CCOC(=O)c1cnc(Nc2nc3ccccc3o2)nc1C`, the “hERG current change (%, negative = inhibition) at 10uM” value is given as -16.2%.

As for `CC(=O)NC(Cc1ccccc1)C(=O)NC1CCN(C(=O)c2ccc([N+](=O)[O-])cc2)CC1` (stereo not drawn), the “hERG current change (%, negative = inhibition) at 10uM” value was -10.6%.

On to `COc1ccccc1C1C(C(C)=O)=C(O)C(=O)N1CCc1ccccc1` (stereo not drawn), for which the “hERG current change (%, negative = inhibition) at 10uM” value turned out to be 15.4%.

For the compound `O=[N+]([O-])c1cccc(N(CC(O)CN2CCCC2)S(=O)(=O)c2ccccc2)c1` (stereo not drawn), the “hERG current change (%, negative = inhibition) at 10uM” value is on record as -62.4%.

Regarding `COc1ccc(CCC(C)NCc2cc(OC)cc(OC)c2)cc1` (stereo not drawn), the “hERG current change (%, negative = inhibition) at 10uM” value is -42.3%.

Take `CC(=O)Oc1ccc2nc(-c3cccs3)oc(=O)c2c1`: the “hERG current change (%, negative = inhibition) at 10uM” value came to 8.53%.

For the compound `CC(C(=O)Nc1ccccc1)N1C(=O)c2ccccc2C1=O` (stereo not drawn), the “hERG current change (%, negative = inhibition) at 10uM” value turned out to be 8.45%.

With `O=C(NCc1ccncc1)C(=O)NCc1ccco1`, the “hERG current change (%, negative = inhibition) at 10uM” value came out at 0.559%.

Take `CC1Cc2ccccc2N1CC(=O)Nc1ccc2c(c1)OC(F)(F)O2` (stereo not drawn): the “hERG current change (%, negative = inhibition) at 10uM” value was -9.07%.

As for `Cc1csc(=O)n1CC(=O)OCc1nnc(-c2ccc(Cl)cc2)o1`, the “hERG current change (%, negative = inhibition) at 10uM” value is -2.32%.

For the compound `COc1cc(NS(=O)(=O)c2ccc(NC(=S)NC(=O)c3ccc(F)c(F)c3)cc2)nc(OC)n1`, the “hERG current change (%, negative = inhibition) at 10uM” value is on record as 4.18%.

As to `COc1ccc(C(OC(=O)c2ccco2)C(=O)NCC2CCCO2)cc1` (stereo not drawn), the “hERG current change (%, negative = inhibition) at 10uM” value is on record as 9.52%.

In the case of `COc1ccc(-c2nnc(CSc3nc4ccccc4c(=O)n3CC3CCCO3)o2)cc1OC` (stereo not drawn), the “hERG current change (%, negative = inhibition) at 10uM” value was -49%.

For `O=C(CO/N=C/c1ccccc1O)N1CCc2ccccc21`, the “hERG current change (%, negative = inhibition) at 10uM” value is on record as 8.71%.

As for `COC(=O)c1ccc2nc(NC(=O)C(C)(C)C)sc2c1`, the “hERG current change (%, negative = inhibition) at 10uM” value is listed as -7.64%.

These data come from publication PMC4336329 (PLoS ONE, 2015).
